In PubChem BioAssay AID588579 (National Center for Advancing Translational Sciences (NCATS), 2011):
Screen size: about 400,000 compounds; about 2,200 (0.55%) were called active. Inconclusive means that the source gave no clear call. Such entries were picked first, then a sample of the others. Calls follow the shape of the dose curve; as a rule, active = well fitted inhibition curve with a large enough effect; inconclusive = small, poorly fitted or top-dose-only effect, or another doubt; inactive = no such curve, though single readings can be large or run the other way. Potencies beside an inconclusive call are fits to weak or partial responses and may not hold up. Positions of bridges follow the written chain, without caps; N, C: chain ends. Non-standard residues stand in square brackets, D forms with d. Residues, ends and D or L forms follow the SMILES beside them. *: point of attachment. X1 = CCC(C)C(N)C1=NC(C(=O)*)CS1; dOrn = NCCC[C@@H](N)C(=O)O

molecular target: DNA polymerase kappa (Homo sapiens) (UniProt Q9UBT6); test: qHTS for Inhibitors of Polymerase Kappa; settings: purified Pol kappa, fluorescent DNA synthesis assay, 10 min; series mostly up to 107 µM; activity, negative = inhibition: at the top concentration
Sequence of UniProt Q9UBT6 (Q9UBT6 whole entry, looked up): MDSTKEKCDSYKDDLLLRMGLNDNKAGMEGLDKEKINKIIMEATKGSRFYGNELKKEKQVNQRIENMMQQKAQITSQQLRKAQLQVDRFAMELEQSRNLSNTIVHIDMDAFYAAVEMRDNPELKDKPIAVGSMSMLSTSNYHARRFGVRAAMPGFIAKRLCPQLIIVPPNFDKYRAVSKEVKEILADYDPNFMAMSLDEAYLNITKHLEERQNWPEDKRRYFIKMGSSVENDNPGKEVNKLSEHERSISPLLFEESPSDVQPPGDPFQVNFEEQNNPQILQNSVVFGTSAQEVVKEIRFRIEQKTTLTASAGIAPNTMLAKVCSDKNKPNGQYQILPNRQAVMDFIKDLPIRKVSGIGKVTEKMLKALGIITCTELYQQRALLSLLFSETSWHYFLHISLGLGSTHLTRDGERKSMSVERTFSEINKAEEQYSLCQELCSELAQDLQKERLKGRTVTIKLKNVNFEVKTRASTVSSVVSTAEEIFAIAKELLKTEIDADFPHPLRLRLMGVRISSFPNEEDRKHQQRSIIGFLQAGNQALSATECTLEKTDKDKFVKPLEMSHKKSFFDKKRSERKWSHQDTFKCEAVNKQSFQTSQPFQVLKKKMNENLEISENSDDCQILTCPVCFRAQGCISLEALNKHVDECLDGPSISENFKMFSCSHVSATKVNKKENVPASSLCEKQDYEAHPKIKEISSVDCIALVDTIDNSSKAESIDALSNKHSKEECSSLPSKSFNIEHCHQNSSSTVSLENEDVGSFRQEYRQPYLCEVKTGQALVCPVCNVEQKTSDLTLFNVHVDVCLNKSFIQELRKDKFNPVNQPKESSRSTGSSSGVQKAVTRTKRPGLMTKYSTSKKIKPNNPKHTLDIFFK
In short: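 10 nM Pol kappa was preincubated with compounds for 15 min at room temperature. Reaction started with 50 nM (final) substrate. Fluorescence read kinetically at 0 and 10 min.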
% is scaled to controls: 0 for no effect and ±100 for the full control effect; potency is read from the fitted curve at half-maximal effect; tags tell the direction and shape of the fitted curve.

activity, negative = inhibition, inactive:
Fc1cc(Br)ccc1Nc1c2c(nc3nc(-c4cccs4)nn13)CCCC2 -3.78% [at 60.1 µM], COc1ccc(C(=O)N/C(=C\c2ccccc2)C(=O)NCCCn2ccnc2)cc1 8.4%, C=C(C)C1CC=C(C)/C(=N/NC(=O)CNc2ccc(OCC)cc2)C1 (stereo not given) 0.196%, Cc1ccc(S(=O)(=O)N2[C@@H](c3ccc(Cl)cc3)C(C(=O)O)=CC[C@H]2c2ccc(C(C)C)cc2)cc1 -38.4%, CCN(C(=O)c1ccc2c(c1)N(Cc1cccc(Cl)c1)C(=O)c1ccccc1S2=O)c1ccccc1 (stereo not given) -1.17% [at 60.1 µM], COc1cccc2c1cc1c(=O)n(CC(=O)N3CCN(c4ccccc4F)CC3)nc(C)n12 5.24%, Cc1cc(=O)oc2cc(NC(=O)CC(N)C(=O)O)ccc12 (stereo not given) -8.05% [at 12 µM], COc1ccc(C)cc1S(=O)(=O)NCC(c1cccs1)S(=O)(=O)c1ccc(C)cc1 (stereo not given) -5.3% [at 60.1 µM], O=C(O)CSc1nc2ccccc2[nH]1 -1.4%, CCOc1ccc(/C=C/c2nc(C#N)c(N3CCCCC3)o2)cc1 -4.86%, O=C(Cc1c(F)cccc1Cl)Nc1cccc(S(=O)(=O)NC2=NCCCCC2)c1 -2.45%, O=C(CSCc1ccccc1Cl)NCc1ccc(Cl)c(Cl)c1 -7.22% [at 60.1 µM], O=C1C=C(c2ccccc2)C(=O)N1Nc1ccccc1 0.777%, O=C(Nc1ccccc1N1CCCCC1)c1cccc(Cl)c1 -16.1%, O=C(N/N=C/c1c(O)ccc2ccccc12)Nc1ccccc1 5.44%, COc1ccc(Cl)cc1NC(=O)C1CCN(S(=O)(=O)c2ccc3c(c2)CCCN3C(=O)C2CCC2)CC1 -7.73% [at 60.1 µM], O=C1N/C(=C/c2cccn2-c2ccc(F)cc2)C(=O)N1Cc1ccccc1 -0.646%, COc1ccc(CCCn2ncc3c2nc(N)n2nc(-c4ccco4)nc32)cc1 -11.6% [at 60.1 µM], COC(=O)c1ccc(CSc2ccc3nnc(-c4cccc(F)c4)n3n2)o1 -5.13%

Potency, inconclusive:
C/C(=N\Nc1cccc(C(=O)O)c1)c1ccc2c(c1)Nc1ccccc1S2 79.4 µM [inhibitor, partial curve, poor fit], NS(=O)(=O)c1ccc(N2C(=O)C3CC=CCC3C2=O)cc1 (stereo not given) 89.1 µM [inhibitor, single point], O=C(c1ccc(-c2ccccc2)cc1)C1CCCN(Cc2ccncc2)C1 (stereo not given) 89.1 µM [inhibitor, partial curve, poor fit], COc1ccc(CC(=O)OCC(=O)NCc2ccc(Cl)cc2)cc1 89.1 µM [inhibitor, partial curve, poor fit], Cc1cc(C)n2c(nc3ccccc32)c1C(=O)NCc1ccccc1 89.1 µM [inhibitor, single point], O=C(N/N=C/c1c[nH]c2ccccc12)c1ccc(O)c(O)c1 50.1 µM [inhibitor, single point], CC1=C(C(=O)N2CCN(c3cccc(C(F)(F)F)c3)CC2)C2(CCCCC2)OC1=O 89.1 µM [inhibitor, single point], CCOC(=O)c1c(C)[nH]c(N=Nc2cc(C(=O)O)cc(C(=O)O)c2)c1C 89.1 µM [inhibitor, single point], Cc1ccc(C)c(N2C(=N)S/C(=C\c3ccc(-c4ccccc4C(=O)O)o3)C2=O)c1 100 µM [inhibitor, single point], COc1ccc2cc(CN(CCc3ccccc3)Cc3nnnn3Cc3ccco3)c(=O)[nH]c2c1 89.1 µM [inhibitor, single point], O=C(Nc1nnc(C2CC2)s1)C1Cc2ccccc2CN1S(=O)(=O)c1cccs1 (stereo not given) 44.7 µM [inhibitor, partial curve], Cc1cc(/C=C(/C#N)c2nc3ccccc3[nH]2)c(C)n1-c1ccccc1C(=O)O 89.1 µM [inhibitor, single point], C/C(=N\Nc1ccc(C(=O)O)cc1)c1ccc(Br)cc1 89.1 µM [inhibitor, single point], CC(=O)Nc1cccc(-c2nc3ccc(NC(C)=O)cc3[nH]2)c1 79.4 µM [inhibitor, partial curve], CC1CCN(C(=O)COC(=O)/C=C/c2ccc(Br)o2)CC1 79.4 µM [inhibitor, single point], C=CCn1c(=O)c(C#N)cc2c(=O)n3ccccc3nc21 35.5 µM [inhibitor, partial curve, poor fit], COc1ccc2nc(NC(=O)c3nc(S(=O)(=O)Cc4ccccc4)ncc3Cl)sc2c1 89.1 µM [inhibitor, single point], COc1cc(Br)cc2cc(C(=O)N3CCN(C(=O)c4ccco4)CC3)c(=O)oc12 89.1 µM [inhibitor, single point], CN(C)CCCN1c2ccccc2Sc2ccc(C(F)(F)F)cc21 37.7 µM [inhibitor, partial curve, poor fit], Cc1ccc(OCC(=O)NCC2(N3CCOCC3)CCCCC2)cc1C 100 µM [inhibitor, single point], Cc1ccc(NC(=O)C2CCCN2S(=O)(=O)c2ccc3nc(-c4ccccc4)[nH]c3c2)cc1F (stereo not given) 89.1 µM [inhibitor, single point], COc1cccc(/C=N/NC(=O)c2cc(-c3cccn3C)n[nH]2)c1 79.4 µM [inhibitor, partial curve, poor fit], Nc1nonc1-c1nc2ccccc2n1CC(=O)N/N=C/c1ccc(-c2cccc(C(=O)O)c2)o1 89.1 µM [inhibitor, single point], Cc1ccc(-c2nnc(Nc3ccc(Cl)c(Cl)c3)c3ccccc23)cc1S(=O)(=O)N(C)C 89.1 µM [inhibitor, partial curve, poor fit], COC1OC(CO)C(OC2OC(C(=O)O)C(OC3OC(COS(=O)(=O)O)C(OC4OC(C(=O)O)C(OC5OC(CO)C(OC6OC(C(=O)O)C(OC7OC(COS(=O)(=O)O)C(OC8OC(C(=O)O)=C[C@H](O)C8OS(=O)(=O)O)C(O)C7NC(C)=O)[C@@H](O)C6O)C(O)C5NC(C)=O)[C@@H](O)C4O)C(O)C3NC(C)=O)[C@@H](O)C2O)C(O)C1NC(C)=O (stereo not given in full) 39.8 µM [inhibitor, partial curve, poor fit], Cc1ccc(S(=O)(=O)CCC(=O)Nc2sccc2C(N)=O)cc1 89.1 µM [inhibitor, partial curve, poor fit], CCOC(=O)N1CCN(C(=O)Cn2ncc3ccccc32)CC1 89.1 µM [inhibitor, single point], C#Cc1ccc([C@H]2C=C(C(=O)O)O[C@@H](OCCCCO)C2)cc1 79.4 µM [inhibitor, partial curve], C=CCN1C=C2C(=O)C(C)(OC(=O)c3cccs3)C(=O)C=C2C=C1CCCC(=O)OC (stereo not given) 100 µM [inhibitor, partial curve, poor fit], Cc1cc(C(=O)COC(=O)CC2Sc3ccccc3NC2=O)c(C)n1-c1cccc(C(F)(F)F)c1 (stereo not given) 50.1 µM [inhibitor, partial curve, poor fit], O=C(CN1C(=O)C(=O)N(Cc2ccco2)C1=O)NC1CCCCC1 89.1 µM [inhibitor, single point], CCC(C)C(N)C1=NC(C(=O)N[C@@H](CC(C)C)C(=O)N[C@H](CCC(=O)[O-])C(=O)N[C@H](C(=O)N[C@H]2CCCCNC(=O)[C@H](CC(N)=O)NC(=O)[C@@H](CC(=O)[O-])NC(=O)[C@H](Cc3cnc[nH]3)NC(=O)[C@@H](Cc3ccccc3)NC(=O)[C@H]([C@@H](C)CC)NC(=O)[C@@H](CCCN)NC2=O)[C@@H](C)CC)CS1.[Zn+2] (stereo not given in full) (X1-L[dE]IK[dOrn]I[dF]H[dD]N; lactam 4-C) 14.1 µM [inhibitor, full curve, poor fit]

Potency, active:
C#CCOc1ccc(-c2nnc(Nc3cccc(C)c3)c3ccccc23)cc1 89.1 µM, COc1ccc(/C=N/NC(=O)c2ccc(Cl)c(S(N)(=O)=O)c2)cc1OCC(N)=O 79.4 µM, Oc1ccc(N=Cc2ccc(O)c(O)c2)cc1 44.7 µM, O=c1cc(-c2ccccc2)oc2c(O)c(O)ccc12 8.91 µM, CCCCCCCCCCCCCCCC(=O)OCC(O)C1OC(=O)C(O)=C1O (stereo not given) 14.1 µM, CC(C)NS(=O)(=O)c1ccc2[nH]c3nc(SCC(=O)Nc4ccc(F)c(F)c4)nnc3c2c1 79.4 µM, CC1(C)Cc2c(C#N)c(N3CCN(C(=O)c4ccccc4Cl)CC3)nc(-c3ccco3)c2CS1 79.4 µM, O=Cc1ccccc1C=O 23.8 µM, CCCCNC(=O)c1ccc2nc(-c3ccco3)c(-c3ccco3)nc2c1 8.91 µM, Cc1cc2[nH]c3c(c[n+](C)c4ccccc34)c2cc1C 25.1 µM, CC1=C(CCC(=O)O)c2cc3nc(cc4[nH]c(cc5[nH]c(cc1n2)c(C)c5C(C)O)c(C)c4C(C)O)C(C)=C3CCC(=O)O (stereo not given) 20 µM, C/C(CC(=O)Nc1ccc2ccccc2c1)=N\NC(=O)c1ccc(O)c(O)c1 79.4 µM, S=c1[nH]nc(-c2ccco2)n1/N=C/C=C/c1ccco1 79.4 µM, O=c1c(C(c2c(O)nc3n(c2=O)CCS3)c2cccc3ccccc23)c(O)nc2n1CCS2 39.8 µM
